The supplement of paper PMC12645437, “Orthogonal IMiD-Degron Pairs Induce Selective Protein Degradation in Cells” (ACS Chemical Biology, 2025)
The list shows a part of the results.

Each sequence was assayed against no compound (DMSO) (assay: log2 fold change of degron read counts, EGFP-low vs EGFP+ sorted cells; higher = lower degron-EGFP level without compound (poor expression or instability)). Conditions: compound: DMSO control; 18 h.
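Note: jurkat cells carrying a lentiviral library of mutant zinc finger degrons fused to EGFP plus mCherry, mCherry+ cells FACS sorted, degron abundance counted by next-generation sequencing.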

| Sequence | log2 fold change of degron read counts |
| --- | --- |
| FGCEICGHHFTQKGNLLRHIKL | -0.59 |
| LICEICGFICTQKGNLLRHIKL | 1.1 |
| FTCDICGAEFTQKGNLLRHIKL | -2.32 |
| FCCDQCGACFTQKGNLLRHIKL | -2.58 |
| FNCPICGACFTQKGNLLRHIKL | -0.0373 |
| FECEICGAGFTQKGNLLRHIKL | -1.83 |
| FMCNICGAHFTQKGNLLRHIKL | -0.729 |
| FKCEICGRCFTQKGNLLRHIKL | -1.32 |
| FTCPICGARFTQKGNLLRHIKL | -0.0603 |
| FRCPICGAFFTQKGNLLRHIKL | 1.16 |
| FYCNICGACFTQKGNLLRHIKL | 0.00797 |
| FGCDVCGAHFTQKGNLLRHIKL | -1.04 |
| FGCNQCGATFTQKGNLLRHIKL | -1.13 |
| FKCEICGHQFTQKGNLLRHIKL | -2.25 |
| FWCEICGAEFTQKGNLLRHIKL | -1.99 |
| LWCEICGFECTQKGNLLRHIKL | 1.35 |
| FMCDQCGAFFTQKGNLLRHIKL | -1.33 |
| FACNQCGRRFTQKGNLLRHIKL | -0.548 |
| FYCEICGHAFTQKGNLLRHIKL | -1.4 |
| FYCPQCGATFTQKGNLLRHIKL | 0.075 |
| FCCNQCGHYFTQKGNLLRHIKL | 0.903 |
| FCCEVCGAAFTQKGNLLRHIKL | -2.41 |
| FNCEICGHAFTQKGNLLRHIKL | -1.51 |
| FKCPICGHCFTQKGNLLRHIKL | -0.212 |
| LYCEICGFHCTQKGNLLRHIKL | 0.631 |

| Sequence | log2 fold change of degron read counts |
| --- | --- |
| FMCEICGRTFTQKGNLLRHIKL | -1.34 |
| FHCPQCGAYFTQKGNLLRHIKL | -0.057 |
| FFCNQCGHYFTQKGNLLRHIKL | 1.09 |
| FKCNICGAHFTQKGNLLRHIKL | -0.537 |
| FCCEVCGAKFTQKGNLLRHIKL | -2.04 |
| LACEICGFVCTQKGNLLRHIKL | -0.17 |
| LYCNQCGFTCTQKGNLLRHIKL | 0.984 |
| FYCPVCGAVFTQKGNLLRHIKL | 0.325 |
| FTCEVCGALFTQKGNLLRHIKL | -1.44 |
| FECEICGHDFTQKGNLLRHIKL | -1.02 |
| FCCDVCGACFTQKGNLLRHIKL | -0.924 |
| FECDVCGAWFTQKGNLLRHIKL | -1.92 |
| FWCPQCGAVFTQKGNLLRHIKL | 1.02 |
| FVCNICGAWFTQKGNLLRHIKL | 0.514 |
| LYCNQCGFACTQKGNLLRHIKL | 0.71 |
| FSCPICGAQFTQKGNLLRHIKL | -0.221 |
| FWCPQCGATFTQKGNLLRHIKL | 0.379 |
| FGCEICGHWFTQKGNLLRHIKL | 0.918 |
| FFCPICGAMFTQKGNLLRHIKL | 0.296 |
| FNCDICGARFTQKGNLLRHIKL | -0.835 |
| FECNQCGRWFTQKGNLLRHIKL | -0.527 |
| FVCDICGAWFTQKGNLLRHIKL | -1.13 |
| FDCDICGANFTQKGNLLRHIKL | -0.811 |
| LTCPICGFSCTQKGNLLRHIKL | 0.354 |
| FTCPVCGAFFTQKGNLLRHIKL | 0.468 |
